Measured values as given in the supplement of paper PMC11741623.
This is one part of the list. Interaction screen of human proteins with wild-type SARS-CoV-2 proteins by split-DHFR complementation in yeast, 1 µg/mL methotrexate. Value = fitness of the pair (three or more lineages) minus that of the viral protein without a human partner, on a scale set by negative (0) and fused positive (1) controls, mean of up to three cultures; higher = more likely to interact. Active = false discovery rate below 0.05 (one-sided t-test) in at least one culture. Nearly all pairs are not hits, and differences among them are mostly noise (correlation between cultures about 0.3); most hits were seen in one culture only. Human sequences are the Swiss-Prot entries looked up by gene name; the clone may be another isoform. NSP2 values were corrected by the authors for a growth advantage. Listed are human proteins with a hit and a random twelfth of the others.

How the values were obtained:
Assay in all cases: yeast fitness gain over the viral ORF with no human partner (scaled fitness); higher = more likely to interact
SARS-CoV-2 M = test system: SARS-CoV-2 M
Protocol: (§1)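 Split mouse DHFR complementation in pooled diploid yeast: human ORFeome clones carry one fragment and viral ORFs the other; barcoded lineages compete in 1 µg/mL methotrexate and fitness is read by barcode sequencing in up to three cultures.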

SARS-CoV-2 NSP10 = test system: SARS-CoV-2 NSP10
Protocol: as §1

SARS-CoV-2 NSP13 = test system: SARS-CoV-2 NSP13
Protocol: as §1

SARS-CoV-2 NSP15 = test system: SARS-CoV-2 NSP15
Protocol: as §1

SARS-CoV-2 NSP16 = test system: SARS-CoV-2 NSP16
Protocol: as §1

SARS-CoV-2 NSP1 = test system: SARS-CoV-2 NSP1
Protocol: as §1

SARS-CoV-2 NSP2 = test system: SARS-CoV-2 NSP2
Protocol: as §1

SARS-CoV-2 NSP5 = test system: SARS-CoV-2 NSP5
Protocol: as §1

SARS-CoV-2 NSP6 = test system: SARS-CoV-2 NSP6
Protocol: as §1

SARS-CoV-2 NSP7 = test system: SARS-CoV-2 NSP7
Protocol: as §1

SARS-CoV-2 NSP8 = test system: SARS-CoV-2 NSP8
Protocol: as §1

SARS-CoV-2 NSP9 = test system: SARS-CoV-2 NSP9
Protocol: as §1

SARS-CoV-2 N = test system: SARS-CoV-2 N
Protocol: as §1

SARS-CoV-2 ORF10 = test system: SARS-CoV-2 ORF10
Protocol: as §1

SARS-CoV-2 ORF3B = test system: SARS-CoV-2 ORF3B
Protocol: as §1

SARS-CoV-2 ORF6 = test system: SARS-CoV-2 ORF6
Protocol: as §1

SARS-CoV-2 ORF7A = test system: SARS-CoV-2 ORF7A
Protocol: as §1

SARS-CoV-2 ORF7B = test system: SARS-CoV-2 ORF7B
Protocol: as §1

SARS-CoV-2 ORF8 = test system: SARS-CoV-2 ORF8
Protocol: as §1

SARS-CoV-2 S = test system: SARS-CoV-2 S
Protocol: as §1

SARS-CoV-2 E = test system: SARS-CoV-2 E
Protocol: as §1

SARS-CoV-2 ORF3A = test system: SARS-CoV-2 ORF3A
Protocol: as §1

SARS-CoV-2 NSP14 = test system: SARS-CoV-2 NSP14
Protocol: as §1

SARS-CoV-2 NSP4 = test system: SARS-CoV-2 NSP4
Protocol: as §1

Measured: yeast fitness gain

TLX3, O43711
inactive: SARS-CoV-2 M 0.0149 | SARS-CoV-2 NSP10 = 0.0299 | SARS-CoV-2 NSP13 = 0.0303 | SARS-CoV-2 NSP15 = 0.0667 | SARS-CoV-2 NSP16 = 0.0237 | SARS-CoV-2 NSP1 = -0.0822 | SARS-CoV-2 NSP2 = -0.0779 | SARS-CoV-2 NSP5 = -0.0841 | SARS-CoV-2 NSP6 = -0.052 | SARS-CoV-2 NSP7 = 0.00573 | SARS-CoV-2 NSP8 = -0.06 | SARS-CoV-2 NSP9 = 0.071 | SARS-CoV-2 N -0.137 | SARS-CoV-2 ORF10 = 0.041 | SARS-CoV-2 ORF3B 0.0169 | SARS-CoV-2 ORF6 = -0.0261 | SARS-CoV-2 ORF7A 0.0577 | SARS-CoV-2 ORF7B -0.0209 | SARS-CoV-2 ORF8 = -0.0596 | SARS-CoV-2 S 0.0596

OXCT1, P55809
inactive: SARS-CoV-2 E -0.027 | SARS-CoV-2 M -0.0462 | SARS-CoV-2 NSP10 = -0.05 | SARS-CoV-2 NSP13 = 0.00509 | SARS-CoV-2 NSP15 = 0.0968 | SARS-CoV-2 NSP1 = 0.00157 | SARS-CoV-2 NSP2 = -0.196 | SARS-CoV-2 NSP5 = -0.03 | SARS-CoV-2 NSP6 = -0.053 | SARS-CoV-2 NSP7 = -0.166 | SARS-CoV-2 NSP8 = -0.00146 | SARS-CoV-2 N -0.0796 | SARS-CoV-2 ORF10 = -0.0491 | SARS-CoV-2 ORF3B -0.0713 | SARS-CoV-2 ORF6 = 0.0439 | SARS-CoV-2 ORF7B -0.1 | SARS-CoV-2 ORF8 = -0.0328 | SARS-CoV-2 S 0.0146

KLF6, Q99612
inactive: SARS-CoV-2 E -0.12 | SARS-CoV-2 M 0.127 | SARS-CoV-2 NSP10 = -0.0266 | SARS-CoV-2 NSP13 = 0.0189 | SARS-CoV-2 NSP15 = -0.0334 | SARS-CoV-2 NSP16 = -0.0239 | SARS-CoV-2 NSP1 = -0.122 | SARS-CoV-2 NSP2 = -0.171 | SARS-CoV-2 NSP5 = 0.0581 | SARS-CoV-2 NSP7 = -0.0138 | SARS-CoV-2 NSP8 = 0.0961 | SARS-CoV-2 ORF10 = 0.0878 | SARS-CoV-2 ORF3A -0.0205 | SARS-CoV-2 ORF3B -0.0496 | SARS-CoV-2 ORF6 = 0.0126 | SARS-CoV-2 ORF7A -0.0895 | SARS-CoV-2 ORF7B -0.0694 | SARS-CoV-2 ORF8 = -0.00986 | SARS-CoV-2 S 0.0788

CABP5, Q9NP86
inactive: SARS-CoV-2 E -0.0749 | SARS-CoV-2 M -0.041 | SARS-CoV-2 NSP10 = 0.00176 | SARS-CoV-2 NSP13 = -0.0628 | SARS-CoV-2 NSP15 = -0.000497 | SARS-CoV-2 NSP16 = 0.0577 | SARS-CoV-2 NSP1 = -0.00512 | SARS-CoV-2 NSP2 = -0.171 | SARS-CoV-2 NSP5 = 0.0688 | SARS-CoV-2 NSP6 = 0.123 | SARS-CoV-2 NSP7 = 0.00817 | SARS-CoV-2 NSP8 = -0.0293 | SARS-CoV-2 NSP9 = -0.422 | SARS-CoV-2 ORF10 = -0.18 | SARS-CoV-2 ORF3A -0.104 | SARS-CoV-2 ORF3B 0.0141 | SARS-CoV-2 ORF6 = -0.0131 | SARS-CoV-2 ORF7A -0.0518 | SARS-CoV-2 ORF7B -0.112 | SARS-CoV-2 ORF8 = -0.171 | SARS-CoV-2 S -0.0157

FAM19A3, Q7Z5A8
inactive: SARS-CoV-2 M -0.044 | SARS-CoV-2 NSP10 = -0.0434 | SARS-CoV-2 NSP13 = 0.0145 | SARS-CoV-2 NSP14 = -0.0743 | SARS-CoV-2 NSP1 = 0.063 | SARS-CoV-2 NSP2 = -0.209 | SARS-CoV-2 NSP4 = -0.0198 | SARS-CoV-2 NSP5 = 0.162 | SARS-CoV-2 NSP6 = -0.0179 | SARS-CoV-2 NSP8 = 0.0708 | SARS-CoV-2 NSP9 = -0.0225 | SARS-CoV-2 ORF10 = -0.0268 | SARS-CoV-2 ORF3B -0.187 | SARS-CoV-2 ORF6 = -0.00375 | SARS-CoV-2 ORF7A -0.0379 | SARS-CoV-2 ORF7B 0.0586 | SARS-CoV-2 ORF8 = -0.0134 | SARS-CoV-2 S -0.00362

MT2A, P02795
inactive: SARS-CoV-2 M -0.161 | SARS-CoV-2 NSP10 = -0.0802 | SARS-CoV-2 NSP13 = -0.0301 | SARS-CoV-2 NSP15 = 0.0534 | SARS-CoV-2 NSP16 = 0.103 | SARS-CoV-2 NSP1 = 0.0131 | SARS-CoV-2 NSP2 = -0.139 | SARS-CoV-2 NSP5 = 0.0182 | SARS-CoV-2 NSP6 = 0.0058 | SARS-CoV-2 NSP7 = -0.0343 | SARS-CoV-2 NSP8 = 0.102 | SARS-CoV-2 NSP9 = 0.067 | SARS-CoV-2 N -0.204 | SARS-CoV-2 ORF10 = -0.0147 | SARS-CoV-2 ORF3A 0.0307 | SARS-CoV-2 ORF3B -0.0201 | SARS-CoV-2 ORF6 = -0.0209 | SARS-CoV-2 ORF7A -0.0741 | SARS-CoV-2 ORF7B -0.203 | SARS-CoV-2 ORF8 = -0.136 | SARS-CoV-2 S -0.0198
